From the supplement of paper PMC8948288
The sequences are guide strands of siRNAs; only the seed at positions 2 to 7 varies.

How the values were obtained:
GL261 = experiment: cell viability relative to siNT1 (ATP content); H4 human neuroglioma and GL261 mouse glioma; higher = less toxic; details: siRNA concentration 25 nM; 96 h; mouse
H4 = experiment: as above; details: siRNA concentration 10 nM; 96 h; human
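Also: cells reverse transfected with siRNA duplexes via lipid reagent, ATP read by luminescence, triplicate wells, values scaled to mean viability with non-targeting control siNT1.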

Sequence | cell viability (GL261) | cell viability (H4)
UGACCAAACAUGUAAACCA | 49% | 110%
UGACCACACAUGUAAACCA | 24.4% | 60.1%
UGACCAGACAUGUAAACCA | 39.9% | 29.3%
UGACCAUACAUGUAAACCA | 30% | 88.2%
UGACCCAACAUGUAAACCA | 27.3% | 74.3%
UGACCCCACAUGUAAACCA | 8.02% | 34.7%
UGACCCGACAUGUAAACCA | 36.4% | 103%
UGACCCUACAUGUAAACCA | 13% | 37%
UGACCGAACAUGUAAACCA | 43.2% | 99.3%
UGACCGCACAUGUAAACCA | 32% | 66.6%
UGACCGGACAUGUAAACCA | 25% | 71.9%
UGACCGUACAUGUAAACCA | 20.9% | 97.2%
UGACCUAACAUGUAAACCA | 60.2% | 90.2%
UGACCUCACAUGUAAACCA | 19.7% | 51.6%
UGACCUGACAUGUAAACCA | 42% | 30.8%
UGACCUUACAUGUAAACCA | 22.7% | 18.4%
UGACGAAACAUGUAAACCA | 109% | 98.2%
UGACGACACAUGUAAACCA | 27.2% | 55.9%
UGACGAGACAUGUAAACCA | 58.6% | 76.6%
UGACGAUACAUGUAAACCA | 87.5% | 78.3%
UGACGCAACAUGUAAACCA | 33.4% | 93.8%
UGACGCCACAUGUAAACCA | 15.8% | 66.7%
UGACGCGACAUGUAAACCA | 48.1% | 79.3%
UGACGCUACAUGUAAACCA | 35.3% | 70.8%

Sequence | cell viability (GL261) | cell viability (H4)
UGACGGAACAUGUAAACCA | 33.5% | 69%
UGACGGCACAUGUAAACCA | 9.96% | 8.87%
UGACGGGACAUGUAAACCA | 7.43% | 43.1%
UGACGGUACAUGUAAACCA | 16% | 48%
UGACGUAACAUGUAAACCA | 70.5% | 112%
UGACGUCACAUGUAAACCA | 34.2% | 76.5%
UGACGUGACAUGUAAACCA | 51.5% | 88.3%
UGACGUUACAUGUAAACCA | 67.9% | 115%
UGACUAAACAUGUAAACCA | 46.4% | 75.6%
UGACUACACAUGUAAACCA | 24.1% | 71.3%
UGACUAGACAUGUAAACCA | 40% | 63%
UGACUAUACAUGUAAACCA | 47.5% | 75.9%
UGACUCAACAUGUAAACCA | 15.2% | 58.5%
UGACUCCACAUGUAAACCA | 4.14% | 20.7%
UGACUCGACAUGUAAACCA | 16.6% | 92.9%
UGACUCUACAUGUAAACCA | 7.49% | 53.3%
UGACUGAACAUGUAAACCA | 32.2% | 61.8%
UGACUGCACAUGUAAACCA | 18% | 7.36%
UGACUGGACAUGUAAACCA | 16.7% | 28.3%
UGACUGUACAUGUAAACCA | 16.4% | 23.9%
UGACUUAACAUGUAAACCA | 44.8% | 78.8%
UGACUUCACAUGUAAACCA | 20.1% | 48.5%
UGACUUGACAUGUAAACCA | 27.7% | 72.6%
UGACUUUACAUGUAAACCA | 32.2% | 63.2%

Sequence | cell viability (GL261) | cell viability (H4)
UGAGAAAACAUGUAAACCA | 49.6% | 100%
UGAGAACACAUGUAAACCA | 28.6% | 72%
UGAGAAGACAUGUAAACCA | 33% | 86.7%
UGAGAAUACAUGUAAACCA | 22.7% | 65.4%
UGAGACAACAUGUAAACCA | 27.4% | 95.7%
UGAGACCACAUGUAAACCA | 16.2% | 46.3%
UGAGACGACAUGUAAACCA | 33.6% | 85.9%
UGAGACUACAUGUAAACCA | 24.9% | 21.1%
UGAGAGAACAUGUAAACCA | 49.3% | 67.4%
UGAGAGCACAUGUAAACCA | 20.5% | 23%
UGAGAGGACAUGUAAACCA | 12.5% | 29.1%
UGAGAGUACAUGUAAACCA | 41.8% | 40.3%
UGAGAUAACAUGUAAACCA | 45.5% | 95.1%
UGAGAUCACAUGUAAACCA | 19.8% | 69%
UGAGAUGACAUGUAAACCA | 31.6% | 80.9%
UGAGAUUACAUGUAAACCA | 25.6% | 97.7%
UGAGCAAACAUGUAAACCA | 64.6% | 70.6%
UGAGCACACAUGUAAACCA | 9.14% | 55.3%
UGAGCAGACAUGUAAACCA | 25.2% | 57.4%
UGAGCAUACAUGUAAACCA | 24% | 62.6%
UGAGCCAACAUGUAAACCA | 35.9% | 49.7%
UGAGCCCACAUGUAAACCA | 6.54% | 4.29%
UGAGCCGACAUGUAAACCA | 19.7% | 45.2%
UGAGCCUACAUGUAAACCA | 13.7% | 36.7%

Sequence | cell viability (GL261) | cell viability (H4)
UGAGCGAACAUGUAAACCA | 34.3% | 77.9%
UGAGCGCACAUGUAAACCA | 22.4% | 88.6%
UGAGCGGACAUGUAAACCA | 13% | 42.4%
UGAGCGUACAUGUAAACCA | 33.1% | 56.2%
UGAGCUAACAUGUAAACCA | 41.8% | 67.7%
UGAGCUCACAUGUAAACCA | 10.5% | 46.4%
UGAGCUGACAUGUAAACCA | 13.8% | 42.4%
UGAGCUUACAUGUAAACCA | 11.2% | 43.1%
UGAGGAAACAUGUAAACCA | 21.1% | 57.9%
UGAGGACACAUGUAAACCA | 21.2% | 14.5%
UGAGGAGACAUGUAAACCA | 13.8% | 55.7%
UGAGGAUACAUGUAAACCA | 13.7% | 43%
UGAGGCAACAUGUAAACCA | 10.2% | 42.7%
UGAGGCCACAUGUAAACCA | 5.44% | 14.6%
UGAGGCGACAUGUAAACCA | 17.4% | 70.6%
UGAGGCUACAUGUAAACCA | 6.23% | 32.8%
UGAGGGAACAUGUAAACCA | 27.5% | 48.1%
UGAGGGCACAUGUAAACCA | 13% | 18.8%
UGAGGGGACAUGUAAACCA | 11.8% | 23%
UGAGGGUACAUGUAAACCA | 17.8% | 10.4%
UGAGGUAACAUGUAAACCA | 41.7% | 69.3%
UGAGGUCACAUGUAAACCA | 12.9% | 20.6%
UGAGGUGACAUGUAAACCA | 27.6% | 63.3%
UGAGGUUACAUGUAAACCA | 26.2% | 55.4%

Sequence | cell viability (GL261) | cell viability (H4)
UGAGUAAACAUGUAAACCA | 60.3% | 108%
UGAGUACACAUGUAAACCA | 26.8% | 78.9%
UGAGUAGACAUGUAAACCA | 27.4% | 57.9%
UGAGUAUACAUGUAAACCA | 48.2% | 81.6%
UGAGUCAACAUGUAAACCA | 35.5% | 63.5%
UGAGUCCACAUGUAAACCA | 3.1% | 30%
UGAGUCGACAUGUAAACCA | 44.8% | 86.7%
UGAGUCUACAUGUAAACCA | 24.6% | 67.6%
UGAGUGAACAUGUAAACCA | 50.5% | 72.7%
UGAGUGCACAUGUAAACCA | 53.7% | 76.1%
UGAGUGGACAUGUAAACCA | 13.6% | 33.3%
UGAGUGUACAUGUAAACCA | 21.2% | 89.3%
UGAGUUAACAUGUAAACCA | 36.3% | 110%
UGAGUUCACAUGUAAACCA | 19.9% | 62.6%
UGAGUUGACAUGUAAACCA | 39% | 63.6%
UGAGUUUACAUGUAAACCA | 22.5% | 83.8%
UGAUAAAACAUGUAAACCA | 39.4% | 88.6%
UGAUAACACAUGUAAACCA | 17% | 81.1%
UGAUAAGACAUGUAAACCA | 24% | 60.4%
UGAUAAUACAUGUAAACCA | 31.9% | 56.7%
UGAUACAACAUGUAAACCA | 25.5% | 91.2%
UGAUACCACAUGUAAACCA | 14.7% | 17.9%
